# In all, about 33,000 sequences were measured (“E-score (-0.5 to 0.5)”: median about -0.016, highest 2% from about 0.31 on). Some of the results follow.
# Target: Cst6 (UniProt P40535)
# Assay: PBM E-score (8-mer binding enrichment) (E-score (-0.5 to 0.5)); higher = stronger / more preferred TF binding; most listed sequences are background and not binding sites
# Conditions: protein concentration: 200 nM; construct: GST-DNA-binding domain
# In short: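 PURExpress in vitro transcription/translation supplied GST-tagged yeast transcription factors, either full-length or DNA-binding domain. Applied at about 100-200 nM to universal all-10-mer Agilent arrays double-stranded by primer extension, the bound protein was detected with fluorescent anti-GST. E-scores, modified Wilcoxon-Mann-Whitney statistics, were given by the Universal PBM Analysis Suite to ungapped eight-base words pooled with their reverse complements after masliner normalisation.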
row,Sequence,PBM E-score
1,TCTCCTAA,0.0818
2,ACTCCTCC,-0.251
3,TCGAAAAA,0.259
4,AGGCATGA,0.0538
5,AAACCGTC,-0.0347
6,ACGTAAAC,0.31
7,TACTTCGA,0.186
8,AATGCTAT,0.0889
9,GGGCTAGA,-0.189
10,GAACTCCC,-0.1
11,GGGCCTCA,-0.222
12,GGAGCTTA,-0.194
13,ACTTTATC,0.0378
14,AGCTGCAA,-0.171
15,ACCGACTA,-0.178
16,CGATTTGA,0.0282
17,GACCCCGA,-0.255
18,GGGTGGAC,-0.163
19,CAGCGCCC,-0.0102
20,CTAATTGC,0.0224
21,GTCGGCAA,-0.0764
22,CCTGTTGC,-0.169
23,GGGTCTCA,-0.197
24,GGGATAAC,-0.251
25,AATAGGCT,0.0294

row,Sequence,PBM E-score
1,AAGACCCG,-0.0432
2,CAAATGCC,0.00938
3,CCGAGCGA,-0.108
4,GTGCCTTA,0.2
5,AGTACCTC,-0.0912
6,GTTTAACA,-0.0323
7,GAACAGGA,-0.0633
8,AGTGATAC,0.0425
9,ATGTCTAA,0.196
10,CCTCCACA,-0.107
11,CAAGTTGC,-0.0682
12,CGCCGTTA,0.124
13,GGTTCCCA,-0.187
14,GGAATGAC,0.255
15,ATAACCAC,0.0196
16,GTCACGAC,0.203
17,CCCAACAG,-0.37
18,AAATCAGT,0.106
19,ATTGGAGC,0.0474
20,CAAACGCC,0.0643
21,CAGACGAC,-0.244
22,ACGTTAGA,0.234
23,AAGTCACA,0.119
24,ACGTTCAT,0.113
25,AAGAATCT,-0.146

row,Sequence,PBM E-score
1,GACACCCA,-0.0565
2,GGGCCAGA,-0.195
3,ACTCTTAG,-0.0755
4,GATCTCCA,-0.109
5,ATCCGCCA,-0.244
6,GATATCGA,-0.00685
7,GAACCAAC,-0.0562
8,GATACGAC,0.0285
9,GGCTTCCC,-0.235
10,AGGTCGAT,0.00303
11,ATCATGTG,0.0829
12,AACTTAGT,-0.00478
13,ATAATGCG,-0.0118
14,GGCTCCCC,-0.226
15,CGGGATAC,-0.233
16,ACTGATCG,-0.131
17,GCCTGGGA,-0.176
18,AAACTACA,0.134
19,ACGGCAGA,0.064
20,CATCGAAC,0.0435
21,CTCCCAGA,-0.297
22,GCCATGGC,-0.0795
23,ACAGAAGC,0.106
24,AGCACCCA,-0.102
25,ATACGAAC,0.116

row,Sequence,PBM E-score
1,GAGGGGGA,-0.31
2,AGTTCCTA,0.048
3,CGTCACAG,0.424
4,ACGCACAC,0.087
5,AGTGTGAT,0.187
6,ATAAGCGA,0.127
7,ATTGCACA,0.0846
8,CGCACGAC,0.00764
9,CGGGGAGC,-0.101
10,GAGAAGTA,0.0248
11,ACCCACCT,-0.293
12,AGTCGAAT,-0.101
13,AACCGTTC,-0.027
14,AGGTGGGC,-0.289
15,CCTGTCAC,0.00819
16,TATAACAA,0.249
17,ATTTCGTC,0.266
18,CCCGAGGG,-0.305
19,GTGAAGTA,0.0577
20,AATGAGAA,0.0521
21,CCTGTACC,-0.27
22,CCGACAAC,0.0825
23,ATTCCCAC,0.0107
24,AATGAGGC,0.0379
25,GCAATCAC,0.025

row,Sequence,PBM E-score
1,TAGGCAAA,0.136
2,AAAGGCGG,0.0337
3,GCACTTCC,-0.181
4,CCTCCGAA,-0.293
5,GAACAGGC,-0.075
6,AATAGCGA,0.0714
7,AAACCACT,-0.0138
8,GCCCGGAC,-0.261
9,CTGATTGA,0.0486
10,ACTCGCTA,-0.192
11,AATACCTG,-0.113
12,AATAGGTC,0.00662
13,ACCGATTA,0.0195
14,TACTATAA,0.171
15,CAGCAACC,-0.226
16,AACGATGA,0.172
17,GTTTACGA,0.0714
18,ACCCATAT,0.073
19,ACTCGGAG,-0.124
20,CAGGCGCG,-0.023
21,CCGCTCCG,-0.0524
22,CGAGAGCG,-0.0851
23,TATCAAGA,0.111
24,AACGCTTG,-0.203
25,ACCTGATC,-0.128

row,Sequence,PBM E-score
1,TGTATAAA,0.0714
2,AAACCCTC,-0.0537
3,ACAGAACC,-0.157
4,GCACGGTA,-0.0872
5,CTGACTCC,-0.208
6,CTCTTAAC,0.0444
7,ACGAGAAC,0.0812
8,ACATTTAA,0.193
9,ATGTACGC,0.0103
10,GCCCGCAC,-0.186
11,ACGATATG,0.148
12,AATGACCG,0.178
13,CCGTCGAC,-0.0651
14,GCTGATAC,-0.0819
15,CCCCAGGA,-0.313
16,ACGTTGAC,0.165
17,CAAGGCGG,0.00218
18,AGAAGCTA,-0.0862
19,ATACCCAA,-0.0566
20,AATGGCAC,-0.0183
21,GTCCCCAA,-0.00902
22,GCAGGTAA,0.0757
23,AATGCGCG,0.171
24,GTGGTAGA,-0.2
25,CTCGCGCA,0.0158

row,Sequence,PBM E-score
1,ACACGCCT,0.00407
2,ATCTGCTA,0.126
3,TAATCACA,0.196
4,ACGAAAGC,0.0816
5,ATGAACCG,-0.052
6,ACCTTAAG,-0.0269
7,CCCCGAAA,-0.0996
8,AATCGTCG,-0.0141
9,CGACCCCC,-0.41
10,GAGGTCAC,0.123
11,ACCGGTGG,-0.357
12,CCACAGAC,-0.19
13,GGACTCAC,-0.2
14,AAGTGTGT,0.132
15,GGAAAGGA,-0.18
16,GACCTAAC,0.0894
17,AACGCCGG,-0.138
18,CTAAACGA,-0.00391
19,CTTCTCGA,-0.0306
20,CATATAGA,0.101
21,ATCTGGTG,0.198
22,ATGCCCAA,-0.0689
23,ACGCGATC,0.144
24,CGAGGACA,-0.163
25,AGTCTGAT,-0.0795

row,Sequence,PBM E-score
1,GAGACACC,-0.152
2,GGCTTCAC,-0.0904
3,GCCGATGA,-0.0164
4,CCGTCAGA,-0.0924
5,CCGCCGGC,-0.146
6,CTTTCCCC,-0.0891
7,ACTGAAAC,0.234
8,ACACAAAA,0.158
9,ATGTTGTA,0.171
10,AGCTGCTG,-0.0369
11,ACTGTGTG,-0.0108
12,AACCTAGT,-0.179
13,ATTTTTAC,0.201
14,CGTCTATA,-0.0233
15,ACAGTAGT,-0.0233
16,GCGTAGAA,-0.0134
17,CACGACCC,-0.145
18,TAAAATAA,0.238
19,CGGACTTC,-0.199
20,GCTCGACC,-0.0876
21,ACAGTAAT,0.196
22,GGACAGTA,0.0836
23,CACCTGAA,0.139
24,CTGCTTTA,0.0782
25,TCGGTTCA,-0.106

row,Sequence,PBM E-score
1,CACCTATC,-0.00186
2,CTACCGGA,-0.268
3,ATTCTGCG,-0.0773
4,AATCTGGC,-0.122
5,GATGCTCA,-0.0988
6,AACGAGCG,0.124
7,AAGTCGCG,-0.0692
8,CAACCTAA,0.129
9,GAAAGGCA,0.236
10,GGAGTGGA,-0.109
11,ACGGCGAA,0.274
12,ATCTGTAC,0.226
13,CATGAAAC,0.122
14,TACGTCCA,0.0953
15,CCCTGGTA,-0.0648
16,GTCGACGA,0.0516
17,ATACCATA,0.181
18,CGTTGAGC,-0.0169
19,ACGCCCGT,-0.0034

# — the supplement of paper PMC3334620
